Here are results for two substances from paper PMC12199413.

The chains behind the UniProt entries cited, without tags or fusion partners.
UniProt Q80U70: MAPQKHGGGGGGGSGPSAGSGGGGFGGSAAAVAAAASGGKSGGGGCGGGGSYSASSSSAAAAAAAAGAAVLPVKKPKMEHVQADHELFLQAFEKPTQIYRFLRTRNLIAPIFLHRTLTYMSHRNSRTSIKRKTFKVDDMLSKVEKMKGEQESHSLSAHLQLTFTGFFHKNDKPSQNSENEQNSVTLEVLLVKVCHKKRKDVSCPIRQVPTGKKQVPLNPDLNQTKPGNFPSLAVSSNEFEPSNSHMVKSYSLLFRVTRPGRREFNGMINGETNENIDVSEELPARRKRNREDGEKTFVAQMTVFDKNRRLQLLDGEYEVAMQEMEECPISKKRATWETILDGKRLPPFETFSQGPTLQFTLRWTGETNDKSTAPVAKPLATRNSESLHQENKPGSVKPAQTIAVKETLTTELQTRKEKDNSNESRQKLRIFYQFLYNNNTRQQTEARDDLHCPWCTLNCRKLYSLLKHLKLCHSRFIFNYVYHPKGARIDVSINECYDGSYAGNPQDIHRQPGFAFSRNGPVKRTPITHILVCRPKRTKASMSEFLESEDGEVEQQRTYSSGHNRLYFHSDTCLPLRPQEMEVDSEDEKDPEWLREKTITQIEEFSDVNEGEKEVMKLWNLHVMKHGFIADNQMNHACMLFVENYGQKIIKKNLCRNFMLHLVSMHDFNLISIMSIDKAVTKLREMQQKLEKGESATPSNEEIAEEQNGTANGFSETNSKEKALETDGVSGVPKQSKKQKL
UniProt Q921E6: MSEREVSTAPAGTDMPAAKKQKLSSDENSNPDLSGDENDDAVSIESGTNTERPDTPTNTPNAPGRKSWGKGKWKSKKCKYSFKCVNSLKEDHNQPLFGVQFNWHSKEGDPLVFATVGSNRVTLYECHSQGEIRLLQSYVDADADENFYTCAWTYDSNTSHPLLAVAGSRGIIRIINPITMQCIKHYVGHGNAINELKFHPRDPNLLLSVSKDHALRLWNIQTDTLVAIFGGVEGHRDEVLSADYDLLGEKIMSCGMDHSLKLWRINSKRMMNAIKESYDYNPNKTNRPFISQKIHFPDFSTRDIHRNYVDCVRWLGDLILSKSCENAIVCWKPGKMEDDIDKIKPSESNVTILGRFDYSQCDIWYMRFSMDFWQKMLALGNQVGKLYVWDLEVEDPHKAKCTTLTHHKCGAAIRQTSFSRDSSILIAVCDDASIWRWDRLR
UniProt Q61188: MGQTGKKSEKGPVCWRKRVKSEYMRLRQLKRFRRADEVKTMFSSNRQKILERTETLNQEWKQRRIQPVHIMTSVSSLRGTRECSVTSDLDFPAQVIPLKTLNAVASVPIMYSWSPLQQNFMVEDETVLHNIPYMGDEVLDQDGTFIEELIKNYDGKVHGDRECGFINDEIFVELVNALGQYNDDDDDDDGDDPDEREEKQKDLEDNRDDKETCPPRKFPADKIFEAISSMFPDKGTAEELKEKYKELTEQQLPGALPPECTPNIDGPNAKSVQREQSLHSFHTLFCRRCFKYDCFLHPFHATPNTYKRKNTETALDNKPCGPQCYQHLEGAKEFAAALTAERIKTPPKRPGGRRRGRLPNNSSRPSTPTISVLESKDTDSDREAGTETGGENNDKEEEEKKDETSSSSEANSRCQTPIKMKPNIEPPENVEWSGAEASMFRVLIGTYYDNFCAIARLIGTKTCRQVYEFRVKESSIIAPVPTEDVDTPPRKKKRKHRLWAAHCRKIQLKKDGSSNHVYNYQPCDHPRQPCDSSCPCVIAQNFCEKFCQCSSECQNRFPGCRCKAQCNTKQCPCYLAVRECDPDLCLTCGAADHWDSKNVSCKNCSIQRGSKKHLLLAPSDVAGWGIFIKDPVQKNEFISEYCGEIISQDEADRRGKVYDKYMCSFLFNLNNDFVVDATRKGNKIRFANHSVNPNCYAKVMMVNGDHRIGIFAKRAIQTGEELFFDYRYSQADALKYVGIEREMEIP

No constants are given. Whether binding was seen depends on the method and setting. In cells and extracts the contact can be indirect. Some results given as binding are weak or reduced against the parent protein; the word gives no strength.

Assay [1] addresses SUZ12 polycomb repressive complex 2 subunit (mouse (endogenous in C2C12)) (UniProt Q80U70). Nature of the assay: co-IP; C2C12 myoblasts with knockdown of lncRNA-MEG3 (shRNA); lysate, specific antibodies and Protein A/G agarose beads, Western blot. On the technique in general: A western blot detects proteins with antibodies after separation by electrophoresis.
For assay [2] the target is unchanged. Nature of the assay: co-IP; C2C12 myoblast lysate, specific antibodies and Protein A/G agarose beads (Magnetic Co-IP Kit, BersinBio), Western blot; control cells, DNase I, lncRNA-MEG3 overexpression or reintroduction.
For assay [3] the target is unchanged. Nature of the assay: co-IP; C2C12 myoblasts treated with RNase (RNase T1 in the legend); lysate, specific antibodies and Protein A/G agarose beads, Western blot.

With EED (from UniProt Q921E6 1-441), the binding result in assay [1] was “no binding (condition: lncRNA-MEG3 knockdown)”; in assay [2], “binds”; in assay [3] it was “no binding (condition: RNase treatment (RNase T1))”.
Take EZH2 (from UniProt Q61188 1-746): the binding entry is reported as “no binding (condition: lncRNA-MEG3 knockdown)” in assay [1] and “no binding (condition: RNase treatment (RNase T1))” in assay [3].
